Source: the RNAGym collection of RNA variant scans (doi:10.7554/elife.90254)
Read counts are not given, so values of variants with three or more changes are uncertain.

B1: LINE1-mini (parent)
chain: GGCAGAGCUCAACACAGCGUGGCAAAGUGGCUGUGGCUAGACUGCC

Variants of: B1
Assay: self-cleavage, relative activity (ratio to wild type); higher = more cleavage; in vitro, sequencing; the parent is a self-cleaving ribozyme

| Variant | self-cleavage |
| --- | --- |
| U9A C13U U20C | 0.2 |
| U9A G21A A24U A26U C37A | 0.57 |
| U9A C15G G21U A41U | 0.04 |
| U9A A16U C42G C46G | 0.03 |
| U9A G40A C45G | 0.09 |
| C8U G17A C45A C46A | 0.13 |
| U9A A14U G40A | 0.12 |
| U9A A12C A16C C18G G21A C23A A24C G29A C31U | 0.01 |
| U9C G21U G40C | 0.04 |
| C8U G21U G22C A25C G30C | 0.16 |
| U9A G27U U32C | 0.09 |
| U9C A24C G40C | 0.03 |
| C8U U20A C23A C42U | 0.06 |
| C8U G22C C45G | 0.03 |
| U9C C23A A24U | 0.06 |
| U9A C23U A26U | 0.12 |
| U9C G17A U34A | 0.02 |
| U9A G17C C37A | 0.14 |
| U9C A14G G22C G36A G40C | 0.01 |
| C8U G30U U43G | 0.11 |
| U9A U32C G35A | 0.35 |

| Variant | self-cleavage |
| --- | --- |
| U9A C18U C23A G33C G36U G44A | 0 |
| U9C A11U U28C C31A G44A | 0.01 |
| U9C A11C U20A C23G | 0.02 |
| U9A A11U A26G G30A | 0.02 |
| U9A C18G U32G G33U | 0.03 |
| U9A G29A G40A | 0.04 |
| U9A A12U C13A G36C | 0.09 |
| C8U U32G U38G A41G | 0.02 |
| C8U G30U G36A A41G | 0.03 |
| C8U G33U U43C | 0.01 |
| U9C A12U G27U | 0.02 |
| U9A C10A C18A G40U | 0.04 |
| U9A A25C U28C G36A | 0.23 |
| U9A A14C G19C C42A | 0.04 |
| C8U U9A C10A C31A | 0.01 |
| U9A U20C U32G G36C | 0.02 |
| U9C C18A A24C C31A | 0.02 |
| U9A C23A G29U G40U | 0.02 |
| C8U C45A C46U | 0.1 |
| U9A G36U C42A | 0.08 |
| U9A A12G A26G G29A | 0.03 |

| Variant | self-cleavage |
| --- | --- |
| C8U G30U G33C G35C A41C | 0.05 |
| U9A A11U G35U | 0.04 |
| U9C C10U C15G G21C C31A | 0.02 |
| U9A A11C G35U G36A A39G | 0 |
| U9C C15G A16U G30U | 0.03 |
| U9A U28G G36U G44A | 0.13 |
| U9A U20G A39C G44C | 0.02 |
| U9A G19C C31A G35U G40U | 0.04 |
| U9A C13A C23A G36A A41G | 0.91 |
| U9A G29C G35A G44U | 0.1 |
| U9C C13A G29C | 0.01 |
| U9C C10G A11G C18G A26G A41C | 0 |
| U9A C23U C46A | 0.35 |
| C8U C31A G36U G44C | 0.04 |
| U9A C18G A26C | 0.1 |
| U9A G21U G27U C37G G40U | 0.01 |
| C8U G17C C31U | 0.13 |
| U9A C15U G17C | 0.2 |
| U9A G17C G40U | 0.17 |
| U9C G19A U20A G21C A25C U28C A39U | 0.02 |
| U9C G19C C31U G33U | 0.06 |

| Variant | self-cleavage |
| --- | --- |
| C8U G21C G22A C31U | 0.23 |
| C8U G40C A41G U43C | 0.13 |
| U9C C13U U38A | 0.03 |
| U9A U20A C31U | 0.02 |
| U9C A16U C31U G33C U34A | 0 |
| U9A C31U G33A | 0.31 |
| U9C A14U A39C | 0.07 |
| U9C A11U A24C U38A | 0 |
| U9A U28G G29C | 0.01 |
| U9A G17C C31G C45G | 0.09 |
| U9C G27U C42A | 0.06 |
| U9A A14G G30U G35C | 0.06 |
| C8U G17C A26C | 0.28 |
| C8U C37A A39C G40U | 0.05 |
| C8U G27C C31A G33U C45U | 0.33 |
| U9A A24C C37A U38A | 0.05 |
| C8U C23U A24G | 0.02 |
| U9A A12U G22C G30U | 0.07 |
| U9A C13G G30U | 0.04 |
| C8U G22U G36A | 0.56 |
| U9C A11C A12C U34A U38G | 0.01 |
